Results reported in the supplement of paper PMC10126150.
Sequences with one replicate were seen in a single cluster, so their values are uncertain.

What follows are sequences tested on ATP (assay: switch fluorescence ratio, 500 uM ATP over buffer (Cy3 cluster intensity, sum of 5 cycles each) (fold (ratio)); higher = stronger signal-on switching upon ATP binding; sequences stand for … in TCGTCGGCAGCGTCAGATGTGTATAAGAGACAGTTTTTTTTTTTTTTTTTTTTTTTTT…TC). Details: aptamer strand: ATP DNA aptamer (quencher-CACCTGGGGGAGTATTGCGGAGGAAGG + anchor), 100 nM annealed; ATP concentration: 500 uM; one replicate.
How it was run: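 For every switch-domain sequence, the fluorescence ratio is the mean of per-cluster values, each being summed target-cycle Cy3 intensity over summed buffer-cycle Cy3 intensity. Clusters outside 100-1000 RFU were excluded. On a modified Illumina MiSeq flow-cell, the Cy3-labelled switching-strand clusters were annealed to 100 nM quencher-labelled ATP aptamer, imaged in selection buffer and then after 15 min with 500 uM ATP at 22 °C. Five such cycles were run, with NaOH stripping and re-annealing between them.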
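Also: ATP exposure 15 min at 22 °C before imaging.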

Sequence | switch fluorescence ratio
TGAGGAGATG | 0.96
TGAGGCCCTC | 1.03
TGAGGCCTGA | 1
TGAGGGGCT | 0.948
TGAGGGTCAG | 1.02
TGAGGTAGCA | 1.04
TGAGTATATG | 1
TGAGTATCAG | 0.984
TGAGTCACAG | 1.02
TGAGTTAACC | 0.984
TGAGTTAATA | 1.01
TGAGTTACTC | 2.06
TGAGTTCTAT | 0.993
TGATAACGGT | 1.02
TGATAAGTGC | 1.01
TGATACACGA | 1.03
TGATACGATA | 1.05
TGATAGTAGC | 1.03
TGATAGTCTC | 1.03
TGATATCATG | 0.975
TGATCATTTT | 0.957
TGATCTGGCC | 0.988
TGATGAGGTA | 1.32
TGATGCGCGT | 0.991
TGATGCGGAG | 0.954

Sequence | switch fluorescence ratio
TGATGGAGCA | 0.963
TGATGGAGCT | 1.06
TGATGGAGG | 0.985
TGATGGGTG | 1.03
TGATGTAGAC | 1.02
TGATGTATGT | 0.95
TGATGTATTC | 0.975
TGATGTTAG | 0.94
TGATGTTCAT | 0.994
TGATTACCAA | 1.36
TGATTCCACT | 1.04
TGATTCGCGG | 0.993
TGATTGCAAG | 1.09
TGATTTCCTT | 1.03
TGATTTCGTT | 0.99
TGATTTGTAG | 1.01
TGATTTTA | 1.06
TGCAAATAGC | 1.02
TGCAAATTAC | 1.39
TGCAACCTGC | 1.02
TGCAACTACA | 1.12
TGCAAGACAA | 1.17
TGCAAGATAC | 4.11
TGCAAGATCT | 1.05
TGCAAGCCTT | 1.1

Sequence | switch fluorescence ratio
TGCAATGGTT | 1.1
TGCAATTATT | 1.38
TGCACAGGCC | 1.03
TGCACCAAAT | 1.21
TGCACGGAGT | 0.972
TGCACTGT | 1.06
TGCAGCAGAG | 1.06
TGCAGCCGG | 1.06
TGCAGCCGGG | 1.57
TGCAGGGTAC | 1.06
TGCAGGGTAT | 1.18
TGCAGGTTGC | 0.942
TGCAGTAGAG | 0.982
TGCAGTTGC | 0.972
TGCATAAAAG | 0.988
TGCATGAAAT | 0.997
TGCATGACTA | 0.972
TGCATGTGTG | 1.01
TGCCACTACC | 1.32
TGCCACTGTG | 1.06
TGCCAGGCGG | 0.976
TGCCAGGTAA | 1.1
TGCCCATTCT | 0.981
TGCCCTCTTC | 1.02
TGCCCTGGGT | 1.02

Sequence | switch fluorescence ratio
TGCCGAACTT | 1.02
TGCCGAGGCG | 0.958
TGCCGCTGAG | 1.05
TGCCGTAGGT | 1.02
TGCCGTCCTC | 0.993
TGCCTACGAA | 1.28
TGCCTACGGT | 1.01
TGCCTATAGA | 0.969
TGCCTCTTAG | 0.971
TGCCTGAATC | 1.05
TGCCTGCCGC | 1.19
TGCCTTAATG | 0.981
TGCCTTGTCA | 0.998
TGCGAAATTC | 1.26
TGCGAACACG | 1.01
TGCGAAGAGG | 1
TGCGACGCTC | 2.46
TGCGATAAGT | 1.02
TGCGATGACA | 0.991
TGCGATTGCG | 1.01
TGCGATTGGG | 0.992
TGCGATTTGC | 1.04
TGCGCAAACC | 1.06
TGCGCCTTCC | 2.38
TGCGCGGATT | 0.971

Sequence | switch fluorescence ratio
TGCGCGTACG | 0.992
TGCGCTCGGG | 1.05
TGCGCTTGGT | 0.971
TGCGGACCTA | 1.02
TGCGGATGTC | 1.04
TGCGGCATG | 1.04
TGCGGCTTAA | 1.02
TGCGGTATAT | 1.02
TGCGGTGAAC | 1
TGCGTAAGG | 0.982
TGCGTATGTC | 1
TGCGTCACAG | 1.02
TGCGTTATTC | 0.965
TGCGTTCGGA | 1.01
TGCGTTTGGT | 1.01
TGCGTTTTCC | 1.01
TGCTAAAGAA | 0.972
TGCTAACTTA | 0.982
TGCTACTGCC | 1.05
TGCTAGACCA | 0.98
TGCTAGACGA | 1.1
TGCTAGTAGC | 0.962
TGCTAGTCCC | 1.08
TGCTAGTGCC | 1.01
TGCTAGTTTC | 1.01

Sequence | switch fluorescence ratio
TGCTATGCCG | 1.05
TGCTATTGGG | 0.967
TGCTCAACTA | 1.02
TGCTCAATCG | 1.02
TGCTCAGGTG | 2.7
TGCTCCCCGT | 1.04
TGCTCGGGGC | 0.972
TGCTCTGGGT | 1.04
TGCTCTTAAC | 1.05
TGCTCTTGTT | 1.03
TGCTGAACTT | 0.996
TGCTGAGTTA | 0.973
TGCTGCCAG | 0.953
TGCTGGATCG | 0.984
TGCTGGGCAT | 0.997
TGCTGGGG | 0.982
TGCTGTTGAT | 0.965
TGCTTACAAT | 1.04
TGCTTCAGTT | 1.03
TGCTTCTACG | 1.05
TGCTTGGGTG | 1.01
TGCTTGGTCT | 0.987
TGCTTTGAGA | 0.988
TGCTTTGGTA | 1.01
TGGAAAAAGA | 1

Sequence | switch fluorescence ratio
TGGAAATTAC | 1.26
TGGAACATCT | 0.963
TGGAACTACC | 1.12
TGGAAGGCGG | 1.07
TGGAAGGCTA | 1
TGGAATAACT | 1.05
TGGACACCAA | 1.03
TGGACACTG | 1.1
TGGACATTTA | 1.03
TGGACCAGAA | 0.996
TGGACCAGGG | 1.04
TGGACCGGGT | 0.974
TGGACGCCTC | 1.05
TGGACGGCTA | 1.03
TGGACGTCGG | 1.03
TGGACTGCGT | 0.971
TGGACTTCAT | 1.02
TGGAGAACAG | 1.07
TGGAGACGTG | 0.998
TGGAGAGATG | 1.04
TGGAGGGTCC | 1.32
TGGATAGGTC | 0.979
TGGATATAA | 1.2
TGGATATGAG | 0.993
TGGATCAGGC | 1.01

Sequence | switch fluorescence ratio
TGGATCCCCG | 0.976
TGGATCTGCA | 1.01
TGGATGCCGT | 1
TGGATGTCTA | 0.991
TGGATTCTTG | 1.08
TGGATTTATA | 1.02
TGGCAAAACG | 1.01
TGGCAGACAG | 1.02
TGGCAGGGTT | 0.999
TGGCATCCA | 0.982
TGGCCATTTG | 0.99
TGGCCCACAG | 1.08
TGGCCCCGCG | 1.02
TGGCCCTAGG | 1.06
TGGCCGATAC | 2.2
TGGCCGGCAT | 1.01
TGGCGAAGCT | 0.997
TGGCGCCGTT | 1.05
TGGCGCTTCA | 1.05
TGGCGGCTAG | 1.02
TGGCGTCACT | 1.01
TGGCTAAATT | 1.01
TGGCTAGGTC | 1.01
TGGCTCAAAA | 1.02
TGGCTGAAAA | 1.02
